# In article PMC12820563, “FoxP3 forms a head-to-head dimer in vivo and stabilizes its multimerization on adjacent microsatellites”:
# The other results are listed elsewhere or left out.
# Biological target: T1, MBP-FoxP1dN (Mus musculus, UniProt P58462 326-579)
# T1 sequence: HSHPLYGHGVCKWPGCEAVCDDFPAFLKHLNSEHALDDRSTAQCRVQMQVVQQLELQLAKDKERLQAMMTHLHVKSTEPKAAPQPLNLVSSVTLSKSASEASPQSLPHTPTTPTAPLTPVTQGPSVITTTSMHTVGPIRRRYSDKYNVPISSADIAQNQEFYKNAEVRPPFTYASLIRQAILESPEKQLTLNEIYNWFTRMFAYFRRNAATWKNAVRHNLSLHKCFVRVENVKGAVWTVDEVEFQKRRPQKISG
# Assay: PD-seq (MBP pull-down with sequencing); 20 mM Tris-HCl pH 7.5, 100 mM NaCl, 1.5 mM MgCl2, 0.4 uM protein, 0.1 uM dsDNA library, 30 min, room temperature, amylose pull-down; high values mean tight binding
# Settings: protein: recombinant; tags: His6-MBP; chain copies: 2; dsDNA, one strand shown
# How it was run: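 Binding is given as reads-per-million enrichment, pull-down over input, with replicates pooled. The bait was an N-terminus-lacking mouse FoxP3 or FoxP1 fragment with a His6-MBP tag, expressed in E. coli and used at 0.4 µM with 0.1 µM Klenow-filled degenerate double-stranded DNA library for 30 min at room temperature in Tris pH 7.5 buffer with NaCl and MgCl2. Amylose resin pull-down with three washes was followed by proteinase K release, PCR barcoding and Illumina sequencing.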
row,Sequence,binding signal
1,GATGATTGTTCTCCCAGCTGATGAATTTGTCAACTCGAGTAAACAAATTTTCCTAATCTTTCTGTTCAAGCGCCATCTAC,1.49 RPM ratio (pull-down/input)
2,GATGATTGTTCTCCCAGCTGATGAATTTCATCGGTCGAGTAAACAAATTTTCCTAATCTTTCTGTTCAAGCGCCATCTAC,0.797 RPM ratio (pull-down/input)
3,GATGATTGTTCTCCCAGCTGATGAATTCTGGTTGTCGAGTAAACAAATTTTCCTAATCTTTCTGTTCAAGCGCCATCTAC,1.08 RPM ratio (pull-down/input)
4,GATGATTGTTCTCCCAGCTGATGAATTGGACCTATCGAGTAAACAAATTTTCCTAATCTTTCTGTTCAAGCGCCATCTAC,0.853 RPM ratio (pull-down/input)
5,GATGATTGTTCTCCCAGCTGATGAATTATGGTACTCGAGTAAACAAATTTTCCTAATCTTTCTGTTCAAGCGCCATCTAC,1.02 RPM ratio (pull-down/input)
6,GATGATTGTTCTCCCAGCTGATGAATTATTGATATCGAGTAAACAAATTTTCCTAATCTTTCTGTTCAAGCGCCATCTAC,1.53 RPM ratio (pull-down/input)
7,GATGATTGTTCTCCCAGCTGATGAATTCATACAGTCGAGTAAACAAATTTTCCTAATCTTTCTGTTCAAGCGCCATCTAC,0.952 RPM ratio (pull-down/input)
8,GATGATTGTTCTCCCAGCTGATGAATTGAATTTTTCGAGTAAACAAATTTTCCTAATCTTTCTGTTCAAGCGCCATCTAC,0.979 RPM ratio (pull-down/input)
9,GATGATTGTTCTCCCAGCTGATGAATTCGATCCCTCGAGTAAACAAATTTTCCTAATCTTTCTGTTCAAGCGCCATCTAC,0.798 RPM ratio (pull-down/input)
10,GATGATTGTTCTCCCAGCTGATGAATTCTCCGGGTCGAGTAAACAAATTTTCCTAATCTTTCTGTTCAAGCGCCATCTAC,0.759 RPM ratio (pull-down/input)
11,GATGATTGTTCTCCCAGCTGATGAATTAACGGAGTCGAGTAAACAAATTTTCCTAATCTTTCTGTTCAAGCGCCATCTAC,0.839 RPM ratio (pull-down/input)
12,GATGATTGTTCTCCCAGCTGATGAATTCTTATCATCGAGTAAACAAATTTTCCTAATCTTTCTGTTCAAGCGCCATCTAC,1.04 RPM ratio (pull-down/input)
13,GATGATTGTTCTCCCAGCTGATGAATTGGGTAATTCGAGTAAACAAATTTTCCTAATCTTTCTGTTCAAGCGCCATCTAC,1 RPM ratio (pull-down/input)
14,GATGATTGTTCTCCCAGCTGATGAATTACCGTACTCGAGTAAACAAATTTTCCTAATCTTTCTGTTCAAGCGCCATCTAC,0.988 RPM ratio (pull-down/input)
15,GATGATTGTTCTCCCAGCTGATGAATTTGCCGGCTCGAGTAAACAAATTTTCCTAATCTTTCTGTTCAAGCGCCATCTAC,0.799 RPM ratio (pull-down/input)
16,GATGATTGTTCTCCCAGCTGATGAATTTGGCAAATCGAGTAAACAAATTTTCCTAATCTTTCTGTTCAAGCGCCATCTAC,1.07 RPM ratio (pull-down/input)
17,GATGATTGTTCTCCCAGCTGATGAATTGATATACTCGAGTAAACAAATTTTCCTAATCTTTCTGTTCAAGCGCCATCTAC,1.05 RPM ratio (pull-down/input)
18,GATGATTGTTCTCCCAGCTGATGAATTCAGTGTGTCGAGTAAACAAATTTTCCTAATCTTTCTGTTCAAGCGCCATCTAC,0.986 RPM ratio (pull-down/input)
19,GATGATTGTTCTCCCAGCTGATGAATTGGCCACATCGAGTAAACAAATTTTCCTAATCTTTCTGTTCAAGCGCCATCTAC,0.966 RPM ratio (pull-down/input)
20,GATGATTGTTCTCCCAGCTGATGAATTTACAAGATCGAGTAAACAAATTTTCCTAATCTTTCTGTTCAAGCGCCATCTAC,1.21 RPM ratio (pull-down/input)
21,GATGATTGTTCTCCCAGCTGATGAATTCATCCCCTCGAGTAAACAAATTTTCCTAATCTTTCTGTTCAAGCGCCATCTAC,0.888 RPM ratio (pull-down/input)

row,Sequence,binding signal
1,GATGATTGTTCTCCCAGCTGATGAATTCCGCTTCTCGAGTAAACAAATTTTCCTAATCTTTCTGTTCAAGCGCCATCTAC,0.813 RPM ratio (pull-down/input)
2,GATGATTGTTCTCCCAGCTGATGAATTGCCAGCGTCGAGTAAACAAATTTTCCTAATCTTTCTGTTCAAGCGCCATCTAC,0.925 RPM ratio (pull-down/input)
3,GATGATTGTTCTCCCAGCTGATGAATTTTATCAGTCGAGTAAACAAATTTTCCTAATCTTTCTGTTCAAGCGCCATCTAC,0.902 RPM ratio (pull-down/input)
4,GATGATTGTTCTCCCAGCTGATGAATTAACCGAATCGAGTAAACAAATTTTCCTAATCTTTCTGTTCAAGCGCCATCTAC,0.992 RPM ratio (pull-down/input)
5,GATGATTGTTCTCCCAGCTGATGAATTTGTTTACTCGAGTAAACAAATTTTCCTAATCTTTCTGTTCAAGCGCCATCTAC,2.62 RPM ratio (pull-down/input)
6,GATGATTGTTCTCCCAGCTGATGAATTTCCGACCTCGAGTAAACAAATTTTCCTAATCTTTCTGTTCAAGCGCCATCTAC,0.807 RPM ratio (pull-down/input)
7,GATGATTGTTCTCCCAGCTGATGAATTGTATCCATCGAGTAAACAAATTTTCCTAATCTTTCTGTTCAAGCGCCATCTAC,1.18 RPM ratio (pull-down/input)
8,GATGATTGTTCTCCCAGCTGATGAATTAGTGAGATCGAGTAAACAAATTTTCCTAATCTTTCTGTTCAAGCGCCATCTAC,0.857 RPM ratio (pull-down/input)
9,GATGATTGTTCTCCCAGCTGATGAATTTTCCCTGTCGAGTAAACAAATTTTCCTAATCTTTCTGTTCAAGCGCCATCTAC,0.824 RPM ratio (pull-down/input)
10,GATGATTGTTCTCCCAGCTGATGAATTATCAAACTCGAGTAAACAAATTTTCCTAATCTTTCTGTTCAAGCGCCATCTAC,1.02 RPM ratio (pull-down/input)
11,GATGATTGTTCTCCCAGCTGATGAATTAGCGCCTTCGAGTAAACAAATTTTCCTAATCTTTCTGTTCAAGCGCCATCTAC,1.01 RPM ratio (pull-down/input)
12,GATGATTGTTCTCCCAGCTGATGAATTACTAATTTCGAGTAAACAAATTTTCCTAATCTTTCTGTTCAAGCGCCATCTAC,1.25 RPM ratio (pull-down/input)
13,GATGATTGTTCTCCCAGCTGATGAATTCCCTAGTTCGAGTAAACAAATTTTCCTAATCTTTCTGTTCAAGCGCCATCTAC,0.777 RPM ratio (pull-down/input)
14,GATGATTGTTCTCCCAGCTGATGAATTGACGCCCTCGAGTAAACAAATTTTCCTAATCTTTCTGTTCAAGCGCCATCTAC,0.974 RPM ratio (pull-down/input)
15,GATGATTGTTCTCCCAGCTGATGAATTTAACCAATCGAGTAAACAAATTTTCCTAATCTTTCTGTTCAAGCGCCATCTAC,1.07 RPM ratio (pull-down/input)
16,GATGATTGTTCTCCCAGCTGATGAATTTAGAGGGTCGAGTAAACAAATTTTCCTAATCTTTCTGTTCAAGCGCCATCTAC,0.887 RPM ratio (pull-down/input)
17,GATGATTGTTCTCCCAGCTGATGAATTTGCGCCGTCGAGTAAACAAATTTTCCTAATCTTTCTGTTCAAGCGCCATCTAC,0.959 RPM ratio (pull-down/input)
18,GATGATTGTTCTCCCAGCTGATGAATTGCCTAGATCGAGTAAACAAATTTTCCTAATCTTTCTGTTCAAGCGCCATCTAC,0.931 RPM ratio (pull-down/input)
19,GATGATTGTTCTCCCAGCTGATGAATTATCCTTATCGAGTAAACAAATTTTCCTAATCTTTCTGTTCAAGCGCCATCTAC,0.969 RPM ratio (pull-down/input)
20,GATGATTGTTCTCCCAGCTGATGAATTACCAGACTCGAGTAAACAAATTTTCCTAATCTTTCTGTTCAAGCGCCATCTAC,0.92 RPM ratio (pull-down/input)
21,GATGATTGTTCTCCCAGCTGATGAATTTATAAGCTCGAGTAAACAAATTTTCCTAATCTTTCTGTTCAAGCGCCATCTAC,1.02 RPM ratio (pull-down/input)

row,Sequence,binding signal
1,GATGATTGTTCTCCCAGCTGATGAATTGCGGTGTTCGAGTAAACAAATTTTCCTAATCTTTCTGTTCAAGCGCCATCTAC,1.08 RPM ratio (pull-down/input)
2,GATGATTGTTCTCCCAGCTGATGAATTTGGTTATTCGAGTAAACAAATTTTCCTAATCTTTCTGTTCAAGCGCCATCTAC,1.15 RPM ratio (pull-down/input)
3,GATGATTGTTCTCCCAGCTGATGAATTGTTACTATCGAGTAAACAAATTTTCCTAATCTTTCTGTTCAAGCGCCATCTAC,1.45 RPM ratio (pull-down/input)
4,GATGATTGTTCTCCCAGCTGATGAATTCTTGTGTTCGAGTAAACAAATTTTCCTAATCTTTCTGTTCAAGCGCCATCTAC,1.6 RPM ratio (pull-down/input)
5,GATGATTGTTCTCCCAGCTGATGAATTTGTACCCTCGAGTAAACAAATTTTCCTAATCTTTCTGTTCAAGCGCCATCTAC,1.04 RPM ratio (pull-down/input)
6,GATGATTGTTCTCCCAGCTGATGAATTACGTCCCTCGAGTAAACAAATTTTCCTAATCTTTCTGTTCAAGCGCCATCTAC,0.968 RPM ratio (pull-down/input)
7,GATGATTGTTCTCCCAGCTGATGAATTGAAATCTTCGAGTAAACAAATTTTCCTAATCTTTCTGTTCAAGCGCCATCTAC,0.915 RPM ratio (pull-down/input)
8,GATGATTGTTCTCCCAGCTGATGAATTATGTGCCTCGAGTAAACAAATTTTCCTAATCTTTCTGTTCAAGCGCCATCTAC,1.15 RPM ratio (pull-down/input)
9,GATGATTGTTCTCCCAGCTGATGAATTGCAGGAATCGAGTAAACAAATTTTCCTAATCTTTCTGTTCAAGCGCCATCTAC,1.19 RPM ratio (pull-down/input)
10,GATGATTGTTCTCCCAGCTGATGAATTATCTTTGTCGAGTAAACAAATTTTCCTAATCTTTCTGTTCAAGCGCCATCTAC,1.13 RPM ratio (pull-down/input)
11,GATGATTGTTCTCCCAGCTGATGAATTGCGACCTTCGAGTAAACAAATTTTCCTAATCTTTCTGTTCAAGCGCCATCTAC,1.04 RPM ratio (pull-down/input)
12,GATGATTGTTCTCCCAGCTGATGAATTATGGCACTCGAGTAAACAAATTTTCCTAATCTTTCTGTTCAAGCGCCATCTAC,0.972 RPM ratio (pull-down/input)
13,GATGATTGTTCTCCCAGCTGATGAATTGCAACCGTCGAGTAAACAAATTTTCCTAATCTTTCTGTTCAAGCGCCATCTAC,1.29 RPM ratio (pull-down/input)
14,GATGATTGTTCTCCCAGCTGATGAATTGGCAAAGTCGAGTAAACAAATTTTCCTAATCTTTCTGTTCAAGCGCCATCTAC,0.842 RPM ratio (pull-down/input)
15,GATGATTGTTCTCCCAGCTGATGAATTTGCGATCTCGAGTAAACAAATTTTCCTAATCTTTCTGTTCAAGCGCCATCTAC,0.924 RPM ratio (pull-down/input)
16,GATGATTGTTCTCCCAGCTGATGAATTCCGCATTTCGAGTAAACAAATTTTCCTAATCTTTCTGTTCAAGCGCCATCTAC,1.06 RPM ratio (pull-down/input)
17,GATGATTGTTCTCCCAGCTGATGAATTTGGAAAGTCGAGTAAACAAATTTTCCTAATCTTTCTGTTCAAGCGCCATCTAC,0.879 RPM ratio (pull-down/input)
18,GATGATTGTTCTCCCAGCTGATGAATTATAGTAATCGAGTAAACAAATTTTCCTAATCTTTCTGTTCAAGCGCCATCTAC,1.7 RPM ratio (pull-down/input)
19,GATGATTGTTCTCCCAGCTGATGAATTGACGCCTTCGAGTAAACAAATTTTCCTAATCTTTCTGTTCAAGCGCCATCTAC,1.11 RPM ratio (pull-down/input)
20,GATGATTGTTCTCCCAGCTGATGAATTACAGTGATCGAGTAAACAAATTTTCCTAATCTTTCTGTTCAAGCGCCATCTAC,1.04 RPM ratio (pull-down/input)
21,GATGATTGTTCTCCCAGCTGATGAATTGGTAGAGTCGAGTAAACAAATTTTCCTAATCTTTCTGTTCAAGCGCCATCTAC,0.874 RPM ratio (pull-down/input)
